Results on 109 sequences are retold here after article PMC6212790.

This is one part of the list. At the low end of the ranking the order means little.

The target of the assay is T1, GST-Rok-C97-191 (UniProt O34857).
T1 sequence: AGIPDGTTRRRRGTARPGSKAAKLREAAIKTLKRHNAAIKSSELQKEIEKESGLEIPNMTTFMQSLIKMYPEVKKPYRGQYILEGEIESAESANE
Kind of assay: protein binding microarray.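 Further: rank score from −0.5 (least bound) to 0.5 (best bound).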 The note with it: Rok is a gene silencer of Bacillus subtilis; high values mean tight binding; most listed sequences are background and not binding sites; double strand, one strand shown.
In turn, CGCTGGGA showed a binding signal of -0.283 E-score.

On to GATAAAAA, for which the binding signal came to 0.234 E-score. Under GAACCTCC stands -0.235 E-score; under GCTGGATA, -0.0998 E-score. Under TACCGGCA stands 0.0154 E-score; under AGACGTAT, 0.0232 E-score; under CTTTGGCC, -0.0904 E-score.

As for ATGTGCAA, the binding signal was -0.0855 E-score. Then CGATCTGC, with -0.113 E-score. CGGGAAAC yielded a binding signal of -0.185 E-score. CTTTCATA: the binding signal stood at 0.0805 E-score. Then ACAAATCA, with 0.0855 E-score; and ACACGGGT, with 0.0856 E-score. AGGATGAC: the binding signal amounted to 0.0466 E-score. Sequence CCGCTACC yielded a binding signal of -0.0113 E-score.

Regarding ATCCAGCG, the binding signal was -0.106 E-score. Then TGCGCGAA, with -0.119 E-score.

For CGACGCTA, the binding signal amounted to 0.0632 E-score.

The sequence AGGAGAAG came in with a binding signal of 0.0182 E-score. Take CAGTTACG: the binding signal turned out to be 0.132 E-score.

For the sequence CAGAGATC, the binding signal is -0.211 E-score. Then CTATGCTA, with 0.0252 E-score; and GGTTCATA, with 0.0639 E-score; and GCAAAAGC, with -0.141 E-score.

ATCTCAGC showed a binding signal of -0.0701 E-score. Under AACTTCGA stands 0.075 E-score; under AAGGACAA, -0.0114 E-score; under ATCCCTGC, -0.0639 E-score.

ATTACTAC: the binding signal is 0.407 E-score. As for CGTGCTTA, the binding signal is 0.139 E-score. CTGCCCCA yielded a binding signal of -0.352 E-score.

For GCTTGGAC, the binding signal is -0.322 E-score. CTCTAGCC came in with a binding signal of -0.0809 E-score. Then CATAACCG, with -0.11 E-score; and TGGCAACA, with -0.227 E-score. Then ACATCCGA, with -0.00901 E-score; and ACGATGTC, with 0.0153 E-score.

In turn, AGTGTAAG registered a binding signal of 0.162 E-score.

The sequence CAGACCGC came in with a binding signal of -0.326 E-score. Then CATGACGC, with 0.015 E-score; and TACAGATA, with 0.293 E-score. Under CGAGAAGC stands -0.113 E-score; under ATTGTGTC, -0.103 E-score; under CCTGCCGA, -0.192 E-score. With ACTATGCT, the binding signal was -0.0596 E-score. The sequence ACTATTTA yielded a binding signal of 0.303 E-score.

Regarding CCCCAGTC, the binding signal is -0.305 E-score. As for CCCGTGTC, the binding signal was -0.31 E-score. Then AAGGCGAA, with -0.0632 E-score; and ACCACACC, with 0.00887 E-score; and CAGCTGCA, with -0.0452 E-score. On to TATCTTGA, for which the binding signal was -0.0623 E-score. Under AGTCGCTG stands 0.0266 E-score; under GAAAATCC, 0.14 E-score; under AGCCCGTC, -0.111 E-score.

Sequence AGATACGA gave a binding signal of 0.222 E-score. Under CGGAGTCC stands -0.199 E-score; under CTCCACGC, -0.0911 E-score; under CCGGAAAC, -0.277 E-score. Under ACGTTGCC stands -0.0575 E-score; under ACACCGCG, 0.13 E-score; under ATGCATGA, -0.101 E-score. Under CATATTGA stands 0.129 E-score. CACCCGCG showed a binding signal of -0.321 E-score.

In turn, TCTAAAAA gave a binding signal of 0.0481 E-score. In the case of AGGAAACG, the binding signal is -0.173 E-score. Sequence CCGTGACC displayed a binding signal of -0.166 E-score. Under ACAAGGCT stands -0.249 E-score; under AATCGGGC, -0.175 E-score.

As for GTTTTTGA, the binding signal was -0.0121 E-score. ATTATGAG had a binding signal of -0.00845 E-score. Then GATCTGCC, with -0.222 E-score; and CGGAGGCA, with -0.228 E-score. The sequence TGCAAACA registered a binding signal of -0.179 E-score.

For AAATCTAG, the binding signal stood at 0.352 E-score. Under ACATGCCT stands 0.0246 E-score; under CCCATCGC, -0.131 E-score; under AGTGGGTG, 0.0718 E-score.

The sequence TTGTGAAA returned a binding signal of 0.0603 E-score. Under AAGTCCGA stands -0.251 E-score. Regarding AAACGTGG, the binding signal is -0.137 E-score. ACTTCGAT showed a binding signal of 0.162 E-score. Then ATCCCATG, with -0.107 E-score; and AGACAGTG, with -0.301 E-score.

Regarding ACCGCCCC, the binding signal was -0.219 E-score. Under GCCGGACC stands -0.289 E-score; under GCCATGCC, -0.144 E-score.

For the sequence ACATCAAC, the binding signal worked out at 0.0583 E-score.

In the case of AGGCAGAG, the binding signal is -0.0377 E-score. Under GAACGTGA stands -0.119 E-score; under ATCAAATC, 0.0661 E-score. Then AACAGGAT, with -0.104 E-score. Under ATACAGGA stands 0.0797 E-score; under GTCTTTTA, 0.0872 E-score; under TATCACCA, 0.0699 E-score. Regarding ACTGTGGG, the binding signal was -0.27 E-score. CGGCCTTC showed a binding signal of -0.297 E-score. The sequence AATGAACC yielded a binding signal of -0.0713 E-score.

Regarding CAAAGTCA, the binding signal is -0.142 E-score. Then CCTCTTGC, with -0.00641 E-score; and TTCTCAAA, with 0.142 E-score. Then AGCTGGAA, with -0.0644 E-score; and ACCACTTC, with -0.137 E-score; and CACTAAAC, with -0.0842 E-score. For GCAGAACA, the binding signal is -0.168 E-score. Then CCGATCTA, with 0.27 E-score; and ATAACAGG, with -0.0508 E-score; and AGGCCAAA, with -0.232 E-score. Sequence CAGGCTTC had a binding signal of -0.29 E-score.
